# Key:
# Assay type in all cases: in vivo
# Botrytis cinerea = assay: Test Example B: Gray mold on tomato; details: for control value, Test B (gray mold on tomato): Table 7, Test B; for Test B control value (gray mold on tomato): class of control value, Table 7
# Alternaia brassicicola = assay: Test Example C: Alternaria sooty spot on cabbage; details: for control value, Test C (Alternaria sooty spot on cabbage): Table 7, Test C; for Test C control value (Alternaria sooty spot on cabbage): class of control value, Table 7
# Plasmopara viticola = assay: Test Example G: Downy mildew on vine; details: for control value, Test G (downy mildew on vine): 250 ppm sprayed (2.5 ml/pot) before inoculation, assessed 7 to 10 days after inoculation; for Test G control value (downy mildew on vine): 250 ppm spray, 2.5 ml/pot, investigated 7 to 10 days after inoculation
# [1] = tested on: Blumeria graminis f. sp. hordei; assay: Test Example D: Powdery mildew on barley; details: for control value, Test D (powdery mildew on barley): Table 7, Test D; for Test D control value (powdery mildew on barley): class of control value, Table 7
# Puccinia recondita = assay: Test Example E: Brown rust on wheat; details: for control value, Test E (brown rust on wheat): Table 7, Test E; for Test E control value (brown rust on wheat): class of control value, Table 7
SMILES,"control value, Test B (gray mold on tomato) (Botrytis cinerea)","control value, Test C (Alternaria sooty spot on cabbage) (Alternaia brassicicola)","control value, Test G (downy mildew on vine) (Plasmopara viticola)","control value, Test D (powdery mildew on barley) [1]","control value, Test E (brown rust on wheat) (Puccinia recondita)",Test B control value (gray mold on tomato) (Botrytis cinerea),Test C control value (Alternaria sooty spot on cabbage) (Alternaia brassicicola),Test G control value (downy mildew on vine) (Plasmopara viticola),Test D control value (powdery mildew on barley) [1],Test E control value (brown rust on wheat) (Puccinia recondita)
CCn1c(-c2ccc(F)cc2C)c(-n2ncc(C)c2Cl)cc(Cl)c1=O [Compound 369],H (H shows the control value more than 50%),H (H shows the control value more than 50%),L (L shows the control value of 50% or less),H (H shows the control value more than 50%),H (H shows the control value more than 50%),–,–,–,–,–
CCn1c(-c2ccc(F)cc2C)c(-n2cc(C)cn2)cc(Br)c1=O [Compound 370],H (H shows the control value more than 50%),H (H shows the control value more than 50%),L (L shows the control value of 50% or less),H (H shows the control value more than 50%),H (H shows the control value more than 50%),–,–,–,–,–
CCn1c(-c2ccc(F)cc2C)c(-n2ncc(C)c2Cl)cc(Br)c1=O [Compound 371],H (H shows the control value more than 50%),H (H shows the control value more than 50%),H (H shows the control value more than 50%),H (H shows the control value more than 50%),H (H shows the control value more than 50%),–,–,–,–,–
CCn1c(-c2ccccc2C(F)(F)F)c(-n2cc(C)cn2)ccc1=O [Compound 372],–,–,–,–,–,L (L shows the control value of 50% or less),L (L shows the control value of 50% or less),H (H shows the control value more than 50%),H (H shows the control value more than 50%),L (L shows the control value of 50% or less)
CCn1c(-c2ccc(SC)cc2F)c(-n2ncc(C)c2Cl)cc(Br)c1=O [Compound 373],–,–,–,–,–,H (H shows the control value more than 50%),H (H shows the control value more than 50%),H (H shows the control value more than 50%),L (L shows the control value of 50% or less),H (H shows the control value more than 50%)
CCn1c(-c2ccccc2C(F)(F)F)c(-n2cc(C)cn2)cc(Br)c1=O [Compound 374],–,–,–,–,–,L (L shows the control value of 50% or less),L (L shows the control value of 50% or less),H (H shows the control value more than 50%),H (H shows the control value more than 50%),H (H shows the control value more than 50%)
CCn1c(-c2ccccc2C(F)(F)F)c(-n2ncc(C)c2Cl)cc(Cl)c1=O [Compound 375],–,–,–,–,–,H (H shows the control value more than 50%),H (H shows the control value more than 50%),H (H shows the control value more than 50%),H (H shows the control value more than 50%),H (H shows the control value more than 50%)
Cc1cnn(-c2cc(Br)c(=O)n(N)c2-c2ccc(F)cc2F)c1Cl [Compound 376],–,–,–,–,–,H (H shows the control value more than 50%),L (L shows the control value of 50% or less),H (H shows the control value more than 50%),L (L shows the control value of 50% or less),H (H shows the control value more than 50%)
CCn1c(-c2c(F)cccc2F)c(-c2ccsc2C)ccc1=O [Compound 377],–,–,–,–,–,H (H shows the control value more than 50%),H (H shows the control value more than 50%),L (L shows the control value of 50% or less),H (H shows the control value more than 50%),H (H shows the control value more than 50%)
CCn1c(-c2c(F)cccc2Cl)c(-n2cc(F)cn2)ccc1=O [Compound 378],–,–,–,–,–,H (H shows the control value more than 50%),H (H shows the control value more than 50%),L (L shows the control value of 50% or less),H (H shows the control value more than 50%),H (H shows the control value more than 50%)
CCn1c(-c2c(F)cccc2Cl)c(-n2cc(F)cn2)cc(Cl)c1=O [Compound 379],–,–,–,–,–,H (H shows the control value more than 50%),H (H shows the control value more than 50%),L (L shows the control value of 50% or less),L (L shows the control value of 50% or less),H (H shows the control value more than 50%)
CCn1c(-c2c(F)cccc2Cl)c(-n2cc(F)cn2)cc(Br)c1=O [Compound 380],–,–,–,–,–,H (H shows the control value more than 50%),H (H shows the control value more than 50%),L (L shows the control value of 50% or less),L (L shows the control value of 50% or less),H (H shows the control value more than 50%)
CCn1c(-c2c(F)cccc2F)c(-c2sccc2C)cc(Cl)c1=O [Compound 381],–,–,–,–,–,H (H shows the control value more than 50%),H (H shows the control value more than 50%),H (H shows the control value more than 50%),H (H shows the control value more than 50%),H (H shows the control value more than 50%)
CCn1c(-c2ccccc2F)c(-n2cc(F)cn2)ccc1=O [Compound 382],–,–,–,–,–,H (H shows the control value more than 50%),L (L shows the control value of 50% or less),L (L shows the control value of 50% or less),H (H shows the control value more than 50%),H (H shows the control value more than 50%)
CCn1c(-c2ccccc2F)c(-n2cc(F)cn2)cc(Cl)c1=O [Compound 383],–,–,–,–,–,H (H shows the control value more than 50%),H (H shows the control value more than 50%),L (L shows the control value of 50% or less),H (H shows the control value more than 50%),H (H shows the control value more than 50%)
CCn1c(-c2ccccc2F)c(-n2cc(F)cn2)cc(Br)c1=O [Compound 384],–,–,–,–,–,H (H shows the control value more than 50%),H (H shows the control value more than 50%),L (L shows the control value of 50% or less),H (H shows the control value more than 50%),H (H shows the control value more than 50%)
Cc1ccsc1-c1ccc(=O)n(CC(F)F)c1-c1c(F)cccc1F [Compound 385],–,–,–,–,–,H (H shows the control value more than 50%),H (H shows the control value more than 50%),H (H shows the control value more than 50%),H (H shows the control value more than 50%),H (H shows the control value more than 50%)
CCn1c(-c2c(F)cccc2F)c(-c2sc(Br)cc2C)ccc1=O [Compound 386],–,–,–,–,–,H (H shows the control value more than 50%),H (H shows the control value more than 50%),L (L shows the control value of 50% or less),H (H shows the control value more than 50%),H (H shows the control value more than 50%)

# From patent publication US11178870B2 (priority 2017, dated 2021)
